The supplement of paper PMC10126150
Values marked as one replicate rest on one cluster of the flow cell; about a third of the high ones do not repeat.

These sequences were tested on ATP (assay: switch fluorescence ratio, 500 uM ATP over buffer (Cy3 cluster intensity, sum of 5 cycles each) (fold (ratio)); higher = stronger signal-on switching upon ATP binding; sequences stand for … in TCGTCGGCAGCGTCAGATGTGTATAAGAGACAGTTTTTTTTTTTTTTTTTTTTTTTTT…TC). Details: aptamer strand: ATP DNA aptamer (quencher-CACCTGGGGGAGTATTGCGGAGGAAGG + anchor), 100 nM annealed; ATP concentration: 500 uM; one replicate.
In short: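 Clusters with intensities outside 100-1000 RFU were excluded. The remaining Cy3-labelled switching-strand clusters on a modified Illumina MiSeq flow-cell had been annealed to 100 nM quencher-labelled ATP aptamer and imaged in selection buffer, then after 15 min with 500 uM ATP at 22 °C, for five cycles separated by NaOH stripping and re-annealing. The fluorescence ratio, averaged per switch-domain sequence, is each cluster's summed target-cycle Cy3 intensity over its summed buffer-cycle Cy3 intensity.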
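Note: ATP exposure 15 min at 22 °C before imaging.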

Row | Sequence | switch fluorescence ratio
1 | CCCTCTTAA | 1.05
2 | GCATGTGAGC | 1.03
3 | GGCCGGATAA | 0.99
4 | GGCTGGTGGT | 0.978
5 | GGTCGTCGTC | 1.03
6 | ACCCCCCCAA | 1.74
7 | GGATTGAGA | 1.03
8 | TTTACAGCGC | 1.06
9 | ACGGTGAAAT | 1.03
10 | TTACTGGACC | 1.26
11 | TATGGCAAAC | 1.57
12 | CAGAGTCTCG | 1.04
13 | TGTAAGCATC | 1.03
14 | CCAATGACAC | 1.24
15 | GTTGTATCCT | 1.08
16 | CCACATTGGT | 1.02
17 | TCGGTGTGTG | 0.958
18 | AACGATGCCA | 0.996
19 | ACCGGAAGGT | 1.09
20 | AACTCATGA | 0.981
21 | TTTGCTACCG | 0.962
22 | TATAGTAGGT | 1
23 | AGCGTAGTCC | 1.06
24 | TCCGTCGGAT | 1.08
25 | ATGCCCACCG | 1.04
26 | TGACCGACAA | 1.43

Row | Sequence | switch fluorescence ratio
27 | CAAATCGCAG | 1.08
28 | ACCGATCTAT | 1.03
29 | CGAGTTTCCT | 1.03
30 | TGGCAACATT | 0.994
31 | CAGCACATGG | 1.34
32 | CTTAGACACA | 0.863
33 | GCATGTTCAC | 0.951
34 | AAACTGAAC | 1.24
35 | GCAGGGCAGC | 1
36 | AAACTTATGT | 0.951
37 | AAGGAGGTAA | 0.976
38 | CCCCTAAGTG | 2.61
39 | CTCTAAATCT | 1.27
40 | TCTCCCACAA | 2.74
41 | ACAAAATAAG | 1.03
42 | GAGATAGTTG | 1
43 | TTGCTTCCGC | 1.91
44 | AATATTTGCC | 1.01
45 | GTATGGCTAT | 1.02
46 | GCTTTTGTTA | 1.01
47 | CCGGTGACAG | 1.04
48 | TACAAGATGG | 0.958
49 | TAGGCA | 0.99
50 | AGTGAAGGAA | 0.958
51 | GCGTGCACAA | 1.05
52 | AGGCTAACTC | 1.02

Row | Sequence | switch fluorescence ratio
53 | TGTGGGGTCA | 0.995
54 | AAAATCTCAT | 0.957
55 | GGAACCATAG | 1.06
56 | AATCGAACAG | 1.07
57 | CTACTTGAGA | 1.01
58 | AGTGACGCAG | 0.952
59 | CAGTACAGGG | 0.97
60 | AGCCTCTATT | 1.01
61 | GCGGGAAGGC | 1.02
62 | CCACATTCCG | 1.1
63 | AGATAGTTGC | 0.999
64 | ATGCAGTGAA | 1.01
65 | TTATAGCTAG | 1.01
66 | TAGCACTCCG | 1.2
67 | GTGTGCTGT | 1.01
68 | AACTGTGACT | 1.08
69 | AACAGGTGAG | 1.05
70 | GCGCGGTATA | 1.01
71 | CTCGCTGGTG | 1.27
72 | ATCCGTCCTT | 1
73 | ACTAAATGA | 1.01
74 | TCCCATACCG | 1.01
75 | GCTCGAGCGG | 0.998
76 | GACACAACAT | 1.11
77 | TTTTGTGCAT | 1.22
78 | CTTGTGGTGA | 1

Row | Sequence | switch fluorescence ratio
79 | AGTAGCGACG | 0.971
80 | CATTCACACC | 1.11
81 | TAGCAGCGCC | 0.994
82 | GTGCGGCGCC | 0.944
83 | GCAAGCGAAT | 1.06
84 | AACAACTTTG | 0.984
85 | ATACCCACAA | 1.35
86 | GCGCGGCCCG | 0.97
87 | CCGCTTTCGG | 1.09
88 | CGAGCCGTTG | 0.996
89 | AGTTGAGGAG | 1.02
90 | TTCTCCACGG | 1.27
91 | GATGGTATAC | 1.4
92 | AATAGCTTA | 1.06
93 | GAGCGTGGTC | 0.965
94 | GGTGTAACCG | 0.976
95 | CAGAACAGCA | 1.02
96 | TCTAAGTCAT | 0.993
97 | TTTCGGCCT | 1.07
98 | CAACCGCGGT | 1.91
99 | CGGTTAACG | 0.985
100 | GCCCGGTCTT | 1.02
101 | ACAGGGTAAA | 1
102 | TATAGTTCCC | 1.04
103 | GTGAAGTCGC | 0.925
104 | ACCCTTTTC | 1.1

Row | Sequence | switch fluorescence ratio
105 | CGCTGTATAA | 1.07
106 | AGAGCCGGTC | 0.955
107 | AGAGCATTTT | 1.01
108 | CTGTATGGTG | 1.01
109 | TTTAGCGTCT | 1.03
110 | GCTGCGGTCC | 1.05
111 | TTCCGTTCGA | 1.07
112 | CCGGGACTTG | 0.974
113 | CTTAGTGCGA | 1.03
114 | AAATGTATGA | 0.98
115 | TCTCAGCTGC | 1.32
116 | AGACGTATTT | 0.991
117 | CCTCTCGG | 1.48
118 | CGAAATGGTT | 1.03
119 | GTGGGGTTCA | 0.981
120 | TCAATAGCGA | 1.18
121 | CGACAGTGTC | 0.993
122 | ATTAGCTTTC | 1.16
123 | ACTCTGGAGG | 1.01
124 | CTTAGCTGCT | 1.01
125 | CGGTTTCGA | 0.969
126 | AATTCCCTGC | 1.11
127 | TGTGTGATGA | 1.07
128 | CAAACCGTAC | 2.4
129 | CCCGCCTCTG | 1.18
130 | CGATAGGACT | 1.04

Row | Sequence | switch fluorescence ratio
131 | GCCATCACGT | 0.996
132 | GCGTAAGGGC | 0.968
133 | CCTAAAAAAA | 3.19
134 | CATAGTTAGG | 0.988
135 | GAAGCACAGG | 1.68
136 | AGATCAACTC | 1.01
137 | GTTATATCC | 0.977
138 | AGAATGCAGT | 1.02
139 | TTATCGCTAT | 1.06
140 | TACTAATTTT | 1.04
141 | GAATTTACTA | 1.01
142 | CTAAAAAGTT | 1.02
143 | GGTTGACGTT | 0.933
144 | AGTCTTTTGG | 0.987
145 | AAGCCAACTG | 1.03
146 | CCAGTACACG | 0.988
147 | ACCAGCCCGG | 0.974
148 | ATCGGCCGTT | 0.98
149 | ATAGGACGAT | 1
150 | AGGTGCGTAA | 1.01
151 | TGAAAGCCGC | 1.02
152 | TGGCCTATCG | 0.998
153 | ACTACTTGAA | 1.03
154 | AACTTTTTGT | 0.982
155 | TCTTTTCACG | 1.02
156 | AACTTGCTTG | 0.998

Row | Sequence | switch fluorescence ratio
157 | ACTTTGGTTC | 0.932
158 | ACTACGTATC | 1.42
159 | AAGTCGTTGA | 1.01
160 | AAACTGCGGT | 1.04
161 | GAGGTTGACT | 0.986
162 | AGGTATAGAT | 1.05
163 | TGGTCTAACT | 1.08
164 | TCAAAAACAA | 1.01
165 | TTACGCCTGC | 1.1
166 | TCGTCGGAAA | 1.05
167 | AGAGTGCGCT | 1
168 | CCAGTGAGTA | 1.02
169 | TATGGATCAG | 1.01
170 | GGGGGATCCT | 1.01
171 | GTGGGACGGA | 1.21
172 | TGCAAGTG | 0.963
173 | TTGCCAGCAG | 1.01
174 | CGATGAAGGG | 0.962
175 | GGGCAAGGGA | 1.04
176 | AACCGCATTA | 4.15
177 | AACCTAGGAG | 1.02
178 | ACCGATGATA | 1.01
179 | CGTAGACCGA | 0.999
180 | CATTATTGTG | 0.945
181 | CGATGGTAGC | 1.03
182 | TGGTTTCGTT | 0.943

Row | Sequence | switch fluorescence ratio
183 | GAATCTGATT | 1.02
184 | CGAGAGATGG | 1.01
185 | AGGTTCAAAA | 1
186 | CGGAATTGCG | 1.03
187 | CGAGCCGAGG | 1.11
188 | CCTCAGAAAT | 2.35
189 | TCCGAGGATA | 1.08
190 | GCGTACTATA | 1.03
191 | GTAATGTTTT | 0.978
192 | AAGACAAAC | 1.08
193 | CGCGGTACCG | 1.02
194 | AAAGGTGGTG | 0.995
195 | GCCGTAGTTC | 0.964
196 | AAGGTCCTCG | 1.02
197 | GTTTCCTGTT | 0.973
198 | TGAACTCACG | 1.41
199 | CACGGGATCA | 1.06
200 | GGGCTCATTA | 0.977
201 | GTAGAAGGCC | 1.03
